# Experimental data from PubChem BioAssay AID686978 (National Center for Advancing Translational Sciences (NCATS), 2013).
# Several values for one entry are separate records, joined by “and”; a condition that tells them apart may be missing. Equal values may be shown once. The campaign covered roughly 420,000 compounds. About 64,000 (15%) were called active. This list was built around the results that the source calls inconclusive (neither active nor inactive); the mix of calls is not that of the screen. Calls follow the shape of the dose curve; as a rule, active = well fitted inhibition curve with a large enough effect; inconclusive = small, poorly fitted or top-dose-only effect; inactive = flat fitted curve, though single readings scatter. Where the call is inconclusive, the potency comes from a doubtful curve fit.
# Experiment: qHTS for Inhibitors of human tyrosyl-DNA phosphodiesterase 1 (TDP1): qHTS in cells in absence of CPT; also: nearly all actives have a fitted effect of over 55% in size
# Details: DT40 Tdp1-/- hTDP1 cells, no CPT, ATP luminescence, 48 h; activity change, negative = growth inhibition: at 46.2 µM (top of the series) unless noted
# Method in brief: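 Cells were dispensed at 400 per well, compounds added by pin tool, plates incubated ≥48 hr at 37 °C, then CellTiter-Glo added for 30 min at room temperature before luminescence reading. Line: DT40 Tdp1-/- complemented with hTDP1; camptothecin omitted.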
# % is scaled to controls: 0 for no effect and ±100 for the full control effect; potency is read from the fitted curve at half-maximal effect; tags tell the direction and shape of the fitted curve.
SMILES,Potency,"activity change, negative = growth inhibition"
Cc1cc(C(C)(C)C)c(OC(=O)[C@@H]2OC(c3ccccc3)=C[C@H]2c2ccccc2)c(C(C)(C)C)c1,"inconclusive: 13 µM [inhibitor, partial curve]",
O=S(=O)(c1ccc(OC(F)(F)F)cc1)N1CCCC(N2CCOCC2)C1 (centres undefined),,inactive: 5.67%
CCCn1c2ccc(C)cc2c2n[nH]c(=S)nc21,active: 14.6 µM,
COc1ccc(NC(=S)NN(C)C(=S)Nc2ccc(OC)cc2)cc1,"inconclusive: 20.6 µM [inhibitor, single point]",
COc1ccc(-n2c(C)cc(C(=O)CCl)c2C)cc1,active: 1.84 µM,
O=C(c1n[nH]c(=O)c2ccccc12)N1CCN(C2c3ccccc3-c3ccccc32)CC1,"inconclusive: 16.4 µM [inhibitor, single point]",
O=C(CSc1nc2ccccc2[nH]1)NCc1ccco1,,inactive: -15.2%
O=C(CN(C(=O)CCC(=O)Nc1ccccn1)c1cccc(F)c1)NCc1ccco1,,inactive: -13.7%
COc1cc(-c2noc(C)c2C(=O)NCCc2c[nH]c3ccccc23)cc(OC)c1OC,"inconclusive: 15.8 µM [inhibitor, single point] and inconclusive: 18.4 µM [inhibitor, single point]",
Cc1[nH]c(C(=O)N/N=C/c2ccc(C(=O)O)cc2)c(C)c1C(=O)N/N=C/c1ccc(C(=O)O)cc1,,inactive: -20%
O=S(=O)(NC1CCCC1)c1ccc(S(=O)(=O)N2CCCN(Cc3ccccc3)C2)cc1,"inconclusive: 1.3 µM [inhibitor, full curve, poor fit]",
Cc1cccc(-c2noc(CN(C(=O)COc3ccc(Br)cc3C)C(C)C)n2)c1,"inconclusive: 25.9 µM [inhibitor, single point]",
OCCCc1nc2ccccc2n1CCCCOc1ccccc1,"inconclusive: 23.1 µM [inhibitor, single point] and inconclusive: 25.9 µM [inhibitor, partial curve]",
C=CCn1c(C)c(/C=C/c2cc[n+](C)cc2)c2ccccc21,active: 1.46 µM,
COc1ccc(CN2CC(COCc3ccccc3)Oc3ccccc3S2(=O)=O)cc1 (centres undefined),"inconclusive: 18.4 µM [inhibitor, single point]",
O=C1Cc2cc(NS(=O)(=O)c3ccc(Cl)cc3)cc3c2N1CCC3,"inconclusive: 25.9 µM [inhibitor, single point]",
CC(C)NCCCCOc1cccc(Br)c1,active: 23.1 µM,
COc1ccccc1NC(=O)C1=C(C)Nc2nc3ccccc3n2C1c1cccs1 (centres undefined),active: 3.26 µM,
N#Cc1nc(N2CCOCC2)nc(N2CCOCC2)n1,active: 17.8 µM and active: 25.9 µM,
COc1cccc(N=Nc2ccc3ccccc3c2O)c1,"inconclusive: 29.1 µM [inhibitor, single point]",
CCOc1ccc(NC(=O)C(NS(=O)(=O)c2cccc3nsnc23)c2ccccc2)cc1 (centres undefined),"inconclusive: 18.4 µM [inhibitor, single point]",
CC(=O)c1ccc(OCc2ccc(Oc3c(Cl)cccc3[N+](=O)[O-])cc2)cc1,"inconclusive: 29.1 µM [inhibitor, single point]",

SMILES,Potency,"activity change, negative = growth inhibition"
Cn1c(=O)c2c(nc(CN3CCN(CCO)CC3)n2Cc2cccc3ccccc23)n(C)c1=O,"inconclusive: 23.1 µM [inhibitor, single point]",
COc1ccccc1/C=C1\SC(=S)N(CCC(=O)N2CCCCC2CCO)C1=O (centres undefined),"inconclusive: 25.9 µM [inhibitor, single point]",
CCOC(=O)C1(CCOc2ccccc2)CCN(C(=O)CCSC)CC1,"inconclusive: 13 µM [inhibitor, partial curve, poor fit]",
CCc1ccc(CCC(=O)Nc2sc3c(c2C#N)CCCC3)o1,active: 3.55 µM,
COc1ccccc1CNC(=O)C(=O)NCC(c1ccco1)S(=O)(=O)c1cccs1 (centres undefined),"inconclusive: 23.1 µM [inhibitor, single point]",
Cc1ccc(C)c(N2CCN(c3cnn(-c4nc5ccccc5s4)c(=O)c3Cl)CC2)c1,active: 9.2 µM,
O=C(/C=C/c1ccccc1Cl)c1ccc(O)cc1,active: 14.6 µM,
Cc1cc(C)nc(NC(=O)c2ccc(COc3ccccc3Cl)cc2)c1,active: 25.9 µM,
COc1ccc(Cl)cc1NC(=O)Cn1c(=O)n(Cc2ccco2)c(=O)c2cccnc21,active: 16.4 µM,
CCn1c(=O)n(CC)c2cc(N3CCCCC3)c(NC(=O)Nc3cc(C)cc(C)c3)cc21,active: 6.51 µM,
Cc1onc(C(=O)Nc2sc3c(c2C#N)CCCC3)c1[N+](=O)[O-],"inconclusive: 29.1 µM [inhibitor, single point]",
COc1ccc(OCC(O)CN2CCN(Cc3ccc4c(c3)OCO4)CC2)cc1 (centres undefined),,inactive: -8.54%
Cc1ccc(-c2nc(C(=O)NCCCN(C)C)cc3c2[nH]c2ccccc23)cc1,active: 23.1 µM,
CC(C)Nc1nc(NC2CCCC2)nc(N2CCOCC2)n1,"inconclusive: 7.31 µM [inhibitor, partial curve]",
CCn1cc(C(=O)N2CCN(c3cc(C)ccc3C)CC2)c(=O)c2cc(S(=O)(=O)N3CCOCC3)ccc21,"inconclusive: 6.51 µM [inhibitor, single point]",
O=C(NCCNc1ccc(Cl)cc1[N+](=O)[O-])c1cccnc1,"inconclusive: 20.6 µM [inhibitor, single point]",
Cc1ccc(S(=O)(=O)NCCC(=O)NC2CCCCCC2)cc1,,inactive: -15.8%
CCOC(=O)Nc1ccc(S(=O)(=O)N(C)C(C)C)cc1,"inconclusive: 1.03 µM [inhibitor, full curve, poor fit]",
CCOC(=O)C1=CCN(S(=O)(=O)c2cccc(Cl)c2)C1c1ccc(F)cc1 (centres undefined),"inconclusive: 20.6 µM [inhibitor, single point]",
COc1ccccc1N1C(=NC(=O)COc2ccccc2)SC2CS(=O)(=O)CC21 (centres undefined),,inactive: -1.19%
Cc1ccc(-n2ncc3c(=O)n(CC(=O)N4CCN(c5ccccc5)CC4)cnc32)cc1C,"inconclusive: 29.1 µM [inhibitor, single point]",
CCCCCC(=O)Nc1cc2[nH]c(=O)cc(COC)c2cc1C,,inactive: -1.69%
